Reference: PubChem BioAssay AID651820 (National Center for Advancing Translational Sciences (NCATS), 2012)
In all, about 340,000 compounds went through this assay and about 12,000 (3.5%) were called active. Inconclusive means that the source gave no clear call. Such entries were picked first, then a sample of the others. Calls come from the whole dose curve; as a rule, active = well fitted inhibition curve with a large enough effect; inconclusive = small, poorly fitted or top-dose-only effect, or another doubt; inactive = no such curve, though single readings can be large or run the other way. Potencies of inconclusive entries are left out as doubtful fits.

assay: qHTS Assay for Inhibitors of Hepatitis C Virus (HCV); conditions: Huh7.5.1 HCVcc-Cre (HCVcc is cell-culture hepatitis C virus) infection, luciferase reporter, 44 h; activity change, negative = inhibition: at 41.8 µM (top of the series) unless noted
Summary of the method: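 Whole-lifecycle infectious HCVcc-Cre system; cells 1,000/well, compound then virus (~0.5 moi) added 4 h after plating, 44 h culture. Luciferase read 15 sec following 15 min substrate incubation, room temp.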
% is set by controls: 0 for no effect and ±100 for the full control effect; potency is the fitted concentration of half-maximal effect; tags give direction and shape of the fitted curve.

Row | SMILES | Potency | activity change, negative = inhibition
1 | CCOc1cccc2sc(N(CCCN(C)C)C(=O)c3ccc(S(=O)(=O)N(C)Cc4ccccc4)cc3)nc12 | active: 5.01 µM | 
2 | CCn1c(SCC(=O)Nc2cccc(C)c2)nc2c(c1=O)SC(C)C2 (centres undefined) | inconclusive [inhibitor, partial curve] | 
3 | O=C(CNC(=O)c1cccc(S(=O)(=O)N2CCc3ccccc32)c1)Nc1ccc(F)c(F)c1F | inconclusive [inhibitor, single point] | 
4 | CCN(CC)S(=O)(=O)c1ccc(NC(=O)CCC2CCCCC2)cc1 | inconclusive [inhibitor, partial curve] | 
5 | COCCn1c(-c2ccc(Br)cc2)csc1=Nc1cccnc1 | inconclusive [inhibitor, single point] | 
6 | O=C(COc1ccc(F)cc1Cl)Nc1ccc(N2CCOCC2)cc1N1CCOCC1 | active: 22.4 µM | 
7 | COc1cc(OC)cc(-c2sc3ccc(OC)cc3c2C#CCCO)c1 | inconclusive [inhibitor, single point] | 
8 | COc1ccc(C2(CNC(=O)Cc3ccc(OC)c(OC)c3)CCCC2)cc1 | inconclusive [inhibitor, single point] | 
9 | COc1ccc(CNC(=S)Nc2cc(OC)ccc2OC)cc1 | inconclusive [inhibitor, full curve, poor fit] | 
10 | CCN(C(=O)CSc1nc2cc(C(=O)O)ccc2c(=O)n1-c1ccccc1F)C1CCS(=O)(=O)C1 (centres undefined) |  | inactive: 5.56%
11 | Cc1c(NC(=O)/C(C#N)=C/c2ccc(-c3ccccc3Cl)o2)c(=O)n(-c2ccccc2)n1C | inconclusive [inhibitor, single point] | 
12 | O=C(O)CCn1c(C2CCCCC2)nc2ccccc21 |  | inactive: 9.97%
13 | CCOc1ccc(C(=O)Nc2ccc(C(=O)N3CCOCC3)cc2)c(OCC)c1 | active: 14.1 µM | 
14 | CC(=O)Nc1cccc(NC(=S)Nc2ccc(F)c(Cl)c2)c1 |  | inactive: -13.5%
15 | Cc1ccc(NC(=O)Cc2cc(C(=O)O)c3ccccc3n2)c(C)c1 | active: 12.6 µM | 
16 | CC(=O)c1ccccc1NC(=O)CSc1nc2ccccc2c(=O)n1CCCN1CCOCC1 |  | inactive: -12.3%
17 | Cc1noc(C)c1COc1ccccc1C(=O)NCCOc1ccccc1F | inconclusive [inhibitor, partial curve] | 
18 | COc1ccc(OC)c(CN2CCN(CCc3ccccc3)C(CCO)C2)c1 (centres undefined) |  | inactive: -17%
19 | N/C(=N\OC(=O)c1ccc([N+](=O)[O-])cc1)c1ccc(Br)cc1 | inconclusive [inhibitor, single point] | 
20 | CC(C(=O)c1c[nH]c2ccccc12)N1CCc2ccccc2C1 (centres undefined) |  | inactive: 13.6%
21 | COc1cc(-c2noc(C)c2/C=C/c2ccc(N)cc2)cc(OC)c1OC | inconclusive [inhibitor, partial curve, poor fit] | 
22 | CCn1c(SCC(=O)N2CCC(C)CC2)nc2c(c1=O)SC(C)C2 (centres undefined) |  | inactive: -5.06%
23 | COc1cccc(NC(=O)CSc2nc3ccccc3c(=O)n2C)c1 | active: 22.4 µM | 
24 | CCCCc1nc(NCCN)c(C#N)c2c1CSC(C)(C)C2 | inconclusive [inhibitor, partial curve, poor fit] | 
25 | O=C(Cn1cc(C(=O)c2ccco2)c2ccccc21)NC1CC1 | inconclusive [inhibitor, single point] | 

Row | SMILES | Potency | activity change, negative = inhibition
26 | COc1ccc(/C=c2\s/c(=C/C(=O)c3ccc(C)cc3)[nH]c2=O)cc1OC | inconclusive [inhibitor, single point] | 
27 | Cn1c(NCc2c(O)ccc3ccccc23)nc2ccccc21 | inconclusive [inhibitor, partial curve] | 
28 | CCN1C(=S)N[C@@H](CCc2ccccc2)C(C(=O)OC)=C1C |  | inactive: -20.9%
29 | COc1ccc(N(C(=O)c2snc(C(N)=O)c2N)C(C(=O)NCc2ccc(F)cc2)c2ccc(O)cc2)cc1 (centres undefined) | inconclusive [inhibitor, single point] | 
30 | Cc1ccc(Cn2ncc(Cl)c(Cl)c2=O)cc1 | active: 11.2 µM | 
31 | CC(=O)c1cc(Cl)ccc1OCc1cccc(S(=O)(=O)N2CCOCC2)c1 | inconclusive [inhibitor, partial curve, poor fit] | 
32 | O=C(c1ccc(Cl)cc1)N1CCc2ccccc21 |  | inactive: 4.57%
33 | CCOc1cccc(C(=O)Nc2ccc3oc(Cc4ccc(Cl)cc4)nc3c2)c1 | inconclusive [inhibitor, single point] | 
34 | CCn1ccc(C(=O)Nc2ccc(S(=O)(=O)Nc3ccccc3OC)cc2)n1 | inconclusive [inhibitor, single point] | 
35 | C/C(=N/NC(=O)c1nnn(-c2nonc2N)c1-c1ccccc1)c1ccc2c(c1)OCO2 | inconclusive [inhibitor, single point] | 
36 | COc1cccc(NC(=O)N2CCC(C(=O)Nc3ccc(C)cc3C)CC2)c1 |  | inactive: -5.56%
37 | O=C(c1ccccc1)C1Oc2ccccc2C2CC(c3cccs3)=NN12 (centres undefined) | inconclusive [inhibitor, single point] | 
38 | OC(c1ccccc1)(c1ccccc1)C1CCN(C(=S)NCCc2ccccc2)CC1 | inconclusive [inhibitor, single point] | 
39 | C#CCOCCOCCOCCNc1nc(N2CCN(C(=O)[C@H](CCC(=O)O)n3cc(C(N)CC(C)C)nn3)CC2)nc(N2CCN(C(=O)[C@H](Cc3cc4ccccc4[nH]3)n3cc(C(N)CC(C)C)nn3)CC2)n1 (some centres undefined) |  | inactive: 20.3%
40 | CCCCNC(=O)CSc1cc(=O)n(C)c2ccccc12 |  | inactive: -18.4%
41 | COc1ccc(NC(=O)COC(=O)Cn2cnc3ccccc32)cc1 |  | inactive: 31.1%
42 | O=S1(=O)c2ccc(Br)cc2N2CCC[C@@H]2CN1Cc1ccc(Cl)cc1 | active: 8.91 µM | 
43 | Cc1ccc(S(=O)(=O)n2nc(C)cc2N)cc1 |  | inactive: 20.5%
44 | CCOC(=O)N1CCC(Nc2ncnc3c2cnn3-c2ccc(C)cc2C)CC1 | active: 7.08 µM | 
45 | COc1ccc(-c2c(-c3ccc(OC)cc3O)nc(C)nc2C(F)(F)F)cc1 | inconclusive [inhibitor, single point] | 
46 | Cc1cccc(C)c1NC(=O)CNC(=O)C(Cc1ccccc1)NC(=O)c1ccccc1 (centres undefined) |  | inactive: 21.8%
47 | COC(=O)c1c(C)oc(C)c1S(=O)(=O)Nc1ccccc1 |  | inactive: 11.9%
48 | COc1ccc(-c2csc(NC(=O)CSCC(=O)Nc3cc(C)on3)n2)cc1OC | inconclusive [inhibitor, full curve, poor fit] | 
49 | OCC[C@@H]1C[C@@H](O)[C@H](O)[C@]2(CCc3ccccc3O2)O1 |  | inactive: 10.6%
50 | O=C(CCNC(=O)c1ccccc1Cl)NN=Cc1ccccc1[N+](=O)[O-] |  | inactive: -7.6%

Row | SMILES | Potency | activity change, negative = inhibition
51 | Brc1cccc(-c2nnc3sc(CNCc4ccco4)cn23)c1 | inconclusive [inhibitor, single point] | 
52 | Cc1cccc(NC(=S)NC(=O)CCc2ccccc2)c1 |  | inactive: -1.62%
53 | CC1CCCC(NCC(O)COC(c2ccc(F)cc2)c2ccc(F)cc2)C1C (centres undefined) | inconclusive [inhibitor, single point] | 
54 | O=C(Cc1cccc(NC(=O)C2CCCN(C(=O)C3CCCCC3)C2)c1)Nc1ccc(C(=O)N2CCOCC2)cc1 (centres undefined) |  | inactive: 2.95% [at 8.37 µM]
55 | COc1ccccc1NC(=O)CSc1nnc(COc2ccccc2C)o1 | inconclusive [inhibitor, single point] | 
56 | Cc1ccc(NC(=O)CN2C(=O)NC(C)(CC(C)C)C2=O)cc1F (centres undefined) | inconclusive [inhibitor, full curve, poor fit] | 
57 | COc1ccc(OC)c(C2C(C#N)=C(N)Oc3c2c(C)nn3-c2ccc(C)cc2)c1 (centres undefined) |  | inactive: -6%
58 | COc1ccc(-c2nc(NC(=O)C3CCN(c4nc5ccccc5o4)CC3)sc2C)cc1 | inconclusive [inhibitor, partial curve] | 
59 | O=C1NC(=O)N(c2ccccc2)C(=O)/C1=C/c1ccoc1 |  | inactive: 2.87%
60 | COc1ccc(C(=O)NC(=S)Nc2ccc3[nH]c(=O)[nH]c3c2)c(OC)c1 |  | inactive: 10.7%
61 | S=C(Nc1ccccc1)N1N=CCC1c1ccccc1 (centres undefined) | inconclusive [inhibitor, full curve] | 
62 | COc1cc(Nc2c3c(nc4ccccc24)CCC3)cc(OC)c1OC | inconclusive [inhibitor, single point] | 
63 | COc1ccc(-c2cc(C(F)(F)F)nc(SCCC(=O)NCc3ccco3)n2)cc1 |  | inactive: -54.1%
64 | Cc1cccc(C#Cc2ccccc2)n1 | active: 1.12 µM | 
65 | CCN(CC)CC(=O)Nc1sc(C)cc1C(=O)c1ccccc1 | active: 8.91 µM | 
66 | CCOc1cc(C(=O)N2CCC(CC3CC(c4ccccc4)=NO3)(C(=O)NCc3ccc(OC)cc3)CC2)cc(OCC)c1OCC (centres undefined) | inconclusive [inhibitor, partial curve] | 
67 | COc1ccc(/C=C/C(=O)Nc2nonc2NC(C)=O)cc1 | inconclusive [inhibitor, full curve, poor fit] | 
68 | CC(=O)N1CCOc2ccc(S(=O)(=O)N3CCC(C(=O)Nc4cc(C)ccc4C)CC3)cc21 |  | inactive: -12%
69 | O=C(NCc1ccco1)c1ccc2c(c1)N(Cc1ccc(Cl)cc1)CCS2 | active: 10 µM | 
70 | CC(=O)Nc1ccc(/C=N/NC(=O)c2cc3cc(C)ccc3nc2C)cc1 |  | inactive: -0.725%
71 | CCOC(=O)c1cc(C)sc1/N=C/C1C(=O)CCCC1=O |  | inactive: 26%
72 | CC1CCc2c(C(=O)NCCCN3CCOCC3)csc2C1 (centres undefined) | inconclusive [inhibitor, full curve, poor fit] | 
73 | Nc1ccn(C2OC(COP(=O)(O)O)C(O)C2O)c(=O)n1 (centres undefined) | inconclusive [inhibitor, partial curve] | 
74 | CC(C)(C)OC(=O)N(Cc1ccccc1)Cc1cccc(OCc2cccc(NC(=O)c3ccccc3)c2)c1 | active: 7.94 µM | 
